The source of these data is paper PMC7282676.

The chains behind the UniProt entries cited, without tags or fusion partners. Where a name states a change or a piece, a line headed by the entry shows the natural chain unless it says otherwise.
UniProt P42003: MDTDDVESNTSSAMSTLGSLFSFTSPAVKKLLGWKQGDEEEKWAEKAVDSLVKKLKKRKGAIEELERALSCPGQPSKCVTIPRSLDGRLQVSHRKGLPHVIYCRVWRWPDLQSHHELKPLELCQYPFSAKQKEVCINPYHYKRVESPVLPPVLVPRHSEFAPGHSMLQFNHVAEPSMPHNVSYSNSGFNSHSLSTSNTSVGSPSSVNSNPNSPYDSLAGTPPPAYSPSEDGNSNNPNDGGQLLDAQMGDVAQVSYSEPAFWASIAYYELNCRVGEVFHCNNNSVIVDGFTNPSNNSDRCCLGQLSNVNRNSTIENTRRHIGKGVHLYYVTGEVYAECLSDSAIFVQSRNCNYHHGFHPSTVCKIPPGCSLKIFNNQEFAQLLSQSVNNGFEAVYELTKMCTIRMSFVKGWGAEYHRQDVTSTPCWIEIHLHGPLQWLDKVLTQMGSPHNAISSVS
UniProt Q9VT57: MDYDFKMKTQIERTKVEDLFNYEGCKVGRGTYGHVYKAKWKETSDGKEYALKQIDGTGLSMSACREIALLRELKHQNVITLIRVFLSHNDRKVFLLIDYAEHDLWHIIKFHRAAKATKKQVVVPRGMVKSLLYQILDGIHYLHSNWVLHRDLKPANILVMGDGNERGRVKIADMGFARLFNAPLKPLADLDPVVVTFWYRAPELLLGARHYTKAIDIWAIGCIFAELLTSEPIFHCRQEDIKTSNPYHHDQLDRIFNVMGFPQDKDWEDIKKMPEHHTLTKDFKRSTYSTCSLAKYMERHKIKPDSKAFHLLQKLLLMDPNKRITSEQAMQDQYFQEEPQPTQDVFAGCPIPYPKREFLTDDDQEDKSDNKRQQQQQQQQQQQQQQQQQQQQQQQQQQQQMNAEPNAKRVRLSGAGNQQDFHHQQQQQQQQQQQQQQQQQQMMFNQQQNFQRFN

Results are given in words; binding and its absence hold for the method and conditions named. For some of these results: Binding seen in cells or lysates may run through a third protein. Some binding calls cover weakened binding; strength is not graded here.

Assay [1] deals with BD-Mad-N1 (Mad-N1 fragment, AA1-150, as yeast two-hybrid bait) (Drosophila) (UniProt P42003). Put plainly: two-hybrid; AH109 yeast; Mad fragments as GAL4-DNA-binding domain bait, full-length CDK8 as GAL4-activation domain prey; growth on SD/-Leu/-Trp/-His.
Assay [2] addresses BD-Mad-N2 (Mad-N2 fragment, AA1-230, as yeast two-hybrid bait) (Drosophila) (UniProt P42003). The description is as above.
Assay [3] addresses GST-CDK8 (full-length Drosophila CDK8 with an N-terminal GST tag) (Drosophila) (UniProt Q9VT57). Put plainly: pull-down; GST-CDK8 on Glutathione Sepharose 4B beads (50 uL, 0.5-1 ug protein) mixed with 500 uL E. coli cell lysate of His-tagged Mad fragments, 4°C, 3 hours; 20mM Tris-HCl pH 7.5, 10mM MgCl2, 100mM NaCl, 1mM DTT, 0.1% NP-40; Western blot with anti-His; only the target purified.

Consider “AD-CDK8 (full-length CDK8 as yeast two-hybrid prey) (from UniProt Q9VT57 1-454) (enzyme)”, for which the binding result in assay [1] is “no binding”; in assay [2], “binds”.

Turning to “His-tagged Mad-C1 fragment (AA231-455) (from UniProt P42003 231-455) (domain or fragment)”, the binding entry in assay [3] was “no binding”.

As for “His-tagged Mad-C2 fragment (AA151-455) (from UniProt P42003 151-455) (domain or fragment)”, the binding result in assay [3] is given as “binds”.

As for “His-tagged Mad-N1 fragment (AA1-150) (from UniProt P42003 1-150) (domain or fragment)”, the binding result in assay [3] is recorded as “no binding”.

In the case of “His-tagged Mad-N2 fragment (AA1-230) (from UniProt P42003 1-230) (domain or fragment)”, the binding entry in assay [3] is “binds”.

Take “His-tagged full length Mad (Mad-FL, AA1-455) (from UniProt P42003 1-455)”: the binding entry in assay [3] is recorded as “binds”.
